The supplement of paper PMC4166925
± gives the standard deviation of the averaged measurements. Over roughly 33,000 sequences, “E-score (dimensionless, -0.5 to 0.5)” has its median near -0.046; the highest 2% begin near 0.36. Some of the results follow.

System: T1, SpTbr T-box DNA-binding domain (GST fusion)
T1 sequence: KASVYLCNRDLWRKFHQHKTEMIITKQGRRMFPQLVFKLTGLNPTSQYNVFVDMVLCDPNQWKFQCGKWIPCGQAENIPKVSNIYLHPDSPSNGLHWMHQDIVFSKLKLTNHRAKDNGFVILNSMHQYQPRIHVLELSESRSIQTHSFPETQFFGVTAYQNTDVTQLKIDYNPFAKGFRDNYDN
Experiment: PBM E-score of 8-mer (E-score (dimensionless, -0.5 to 0.5)); Tbr is Tbrain of the sea star Patiria miniata (Pm) or the sea urchin Strongylocentrotus purpuratus (Sp); higher = stronger binding preference; most listed sequences are background and not binding sites
Conditions: the construct has about 5 more residues each side
Outline: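 Universal Agilent oligonucleotide arrays, made double-stranded by primer extension, were incubated with 200 nM GST-fused Tbr T-box DNA-binding domain in PBS (pH 7.5). The protein was expressed in BL21 E. coli at 20 °C and purified by glutathione affinity chromatography. After scanning and quantification, the Universal PBM Analysis Suite assigned an enrichment E-score to each ungapped 8-mer, averaged over duplicate arrays.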

| Sequence | PBM E-score of 8-mer |
| --- | --- |
| CGGTATTC | -0.193 ± 0.0094 |
| AAAGTTAT | 0.0124 ± 0.035 |
| CCAGATAG | -0.0992 ± 0.038 |
| AACTTGAG | 0.0512 ± 0.074 |
| ATGTGCTA | 0.328 ± 0.024 |
| GTCCCACA | 0.186 ± 0.043 |
| AGTAACTC | -0.0161 ± 0.012 |
| CATCCACA | 0.217 ± 0.03 |
| CGACCATC | 0.0183 ± 0.023 |
| GTAGTACA | -0.227 ± 0.025 |
| ATCACGAT | 0.0135 ± 0.013 |
| ACGCTAAG | 0.0479 ± 0.022 |
| GGACAGGA | -0.197 ± 0.039 |
| ATCGAAGG | -0.136 ± 0.032 |
| GGCAGATA | -0.156 ± 0.043 |
| CCCACCGA | 0.0487 ± 0.022 |
| CTATCTGA | 0.171 ± 0.068 |
| GCCGTCGC | 0.144 ± 0.022 |
| TAATCTGA | -0.157 ± 0.031 |
| ACGCTTTA | 0.0822 ± 0.041 |
| CGATTTCC | -0.0331 ± 0.02 |
| CAGGTCAC | 0.171 ± 0.08 |

| Sequence | PBM E-score of 8-mer |
| --- | --- |
| ACGCAGAG | -0.0355 ± 0.11 |
| GGTTAAGA | -0.142 ± 0.0063 |
| CAGGCGAC | 0.166 ± 0.05 |
| AGTGTGGG | 0.399 ± 0.018 |
| GGCGATTA | -0.289 ± 0.013 |
| AGCAAAGG | -0.0921 ± 0.024 |
| AATGCTAA | -0.0592 ± 0.014 |
| GAAACTCC | -0.0865 ± 0.014 |
| CTTTTATC | -0.153 ± 0.14 |
| ATTTCGAA | -0.0836 ± 0.0012 |
| CTTGTCCC | -0.202 ± 0.029 |
| GGTGAAAC | -0.0179 ± 0.017 |
| TCAGATCA | -0.106 ± 0.022 |
| GTACGAGA | -0.203 ± 0.0077 |
| ACATGACC | -0.125 ± 0.059 |
| AGTAAGAC | -0.0827 ± 0.043 |
| CCGAAGAA | -0.2529 ± 0.00038 |
| ACGAACCC | -0.123 ± 0.023 |
| TATACTCA | -0.0865 ± 0.097 |
| ATAATTTC | -0.158 ± 0.034 |
| GCTCCTCA | -0.076 ± 0.0082 |
| AGTCAGTA | 0.00111 ± 0.045 |

| Sequence | PBM E-score of 8-mer |
| --- | --- |
| GCCAAACC | 0.0635 ± 0.08 |
| ATCCTATC | -0.124 ± 0.0047 |
| GTGAGACA | 0.292 ± 0.014 |
| ATAGGAAA | -0.233 ± 0.02 |
| AGTCCTTC | -0.127 ± 0.017 |
| CGATGCCG | -0.0132 ± 0.097 |
| CCCATCCA | -0.288 ± 0.062 |
| CAAAGCAA | -0.0076 ± 0.051 |
| CGAGCGGC | -0.0649 ± 0.08 |
| GCCGGCCA | 0.109 ± 0.0074 |
| ACTCAACC | -0.122 ± 0.055 |
| AGTCAGTC | -0.1 ± 0.012 |
| GAGCTAAC | 0.0914 ± 0.0041 |
| AATTCCGG | -0.121 ± 0.019 |
| ACCCCAAT | -0.1311 ± 0.00098 |
| CTCGCGTC | 0.134 ± 0.013 |
| CAATATAC | -0.0785 ± 0.083 |
| AGTTGACA | 0.4138 ± 0.001 |
| CCGGCGTC | 0.067 ± 0.035 |
| ACCGCATA | -0.13 ± 0.074 |
| ACACCGAT | 0.164 ± 0.0045 |
| CCTACATC | -0.228 ± 0.0069 |

| Sequence | PBM E-score of 8-mer |
| --- | --- |
| GCTCATCA | -0.109 ± 0.034 |
| ACAGACAC | 0.226 ± 0.0037 |
| CGTGCTTA | -0.104 ± 0.08 |
| ACTATTCT | -0.0613 ± 0.023 |
| GCCATCCC | -0.256 ± 0.014 |
| CCAAGGAC | -0.0655 ± 0.051 |
| CAAGCTGC | -0.0174 ± 0.056 |
| CAATAACA | 0.0759 ± 0.045 |
| AGTGCTAC | 0.245 ± 0.027 |
| AGAATTGC | 0.119 ± 0.07 |
| TGAGCAAA | 0.0407 ± 0.064 |
| AGAACGCA | -0.111 ± 0.06 |
| TCGATCAA | 0.035 ± 0.0039 |
| TCTGTCAA | 0.109 ± 0.046 |
| ATGTCCGC | -0.21 ± 0.037 |
| CTGTCTGA | 0.0118 ± 0.0004 |
| TTAGATAA | -0.211 ± 0.0079 |
| CGTGCATA | -0.187 ± 0.097 |
| GACATCGC | 0.0769 ± 0.043 |
| ATAAGGTG | 0.336 ± 0.015 |
| ATGGTCCA | -0.188 ± 0.044 |
| TCGGACAA | 0.033 ± 0.06 |

| Sequence | PBM E-score of 8-mer |
| --- | --- |
| GAATTATC | -0.114 ± 0.015 |
| CACAAAAC | 0.182 ± 0.058 |
| CCCCATCC | -0.201 ± 0.014 |
| CTCGTATC | -0.0329 ± 0.013 |
| CAACAGTC | -0.0439 ± 0.081 |
| CGGTTTCC | 0.0475 ± 0.036 |
| AATCACGA | 0.0962 ± 0.037 |
| CCCTAGGA | -0.0695 ± 0.011 |
| AGGTACAT | -0.303 ± 0.029 |
| ATCTTGTG | 0.0445 ± 0.042 |
| AAGGAAGT | 0.0406 ± 0.022 |
| CATAACCG | -0.0598 ± 0.014 |
| CCCCGGCC | -0.0578 ± 0.024 |
| ATCCTCAG | -0.0926 ± 0.023 |
| CGCCTCGA | 0.139 ± 0.028 |
| AACAAAGC | 0.00155 ± 0.04 |
| ACGCAAAA | 0.17 ± 0.029 |
| CCCCTACA | -0.0318 ± 0.01 |
| AGTTTCAT | -0.233 ± 0.01 |
| GCAGCATA | -0.0383 ± 0.02 |
| CCACCGCA | -0.033 ± 0.068 |
